# PMC4336329 (PLoS ONE, 2015)
# Among all 310,000 compounds or so, about 14,000 (4.5%) showed an effect of 50% or more. The effect is printed as a negative number. Some of the results follow.
# Target: human ether-à-go-go-related gene (hERG) potassium channel (human, UniProt Q12809)
# Assay: primary screen, population patch clamp on CHO cells stably expressing hERG
# 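Note: peak tail current of the secondary pulse compared with the same well before compound.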
# Sequence of human ether-à-go-go-related gene (hERG) potassium channel (Q12809 whole entry, looked up): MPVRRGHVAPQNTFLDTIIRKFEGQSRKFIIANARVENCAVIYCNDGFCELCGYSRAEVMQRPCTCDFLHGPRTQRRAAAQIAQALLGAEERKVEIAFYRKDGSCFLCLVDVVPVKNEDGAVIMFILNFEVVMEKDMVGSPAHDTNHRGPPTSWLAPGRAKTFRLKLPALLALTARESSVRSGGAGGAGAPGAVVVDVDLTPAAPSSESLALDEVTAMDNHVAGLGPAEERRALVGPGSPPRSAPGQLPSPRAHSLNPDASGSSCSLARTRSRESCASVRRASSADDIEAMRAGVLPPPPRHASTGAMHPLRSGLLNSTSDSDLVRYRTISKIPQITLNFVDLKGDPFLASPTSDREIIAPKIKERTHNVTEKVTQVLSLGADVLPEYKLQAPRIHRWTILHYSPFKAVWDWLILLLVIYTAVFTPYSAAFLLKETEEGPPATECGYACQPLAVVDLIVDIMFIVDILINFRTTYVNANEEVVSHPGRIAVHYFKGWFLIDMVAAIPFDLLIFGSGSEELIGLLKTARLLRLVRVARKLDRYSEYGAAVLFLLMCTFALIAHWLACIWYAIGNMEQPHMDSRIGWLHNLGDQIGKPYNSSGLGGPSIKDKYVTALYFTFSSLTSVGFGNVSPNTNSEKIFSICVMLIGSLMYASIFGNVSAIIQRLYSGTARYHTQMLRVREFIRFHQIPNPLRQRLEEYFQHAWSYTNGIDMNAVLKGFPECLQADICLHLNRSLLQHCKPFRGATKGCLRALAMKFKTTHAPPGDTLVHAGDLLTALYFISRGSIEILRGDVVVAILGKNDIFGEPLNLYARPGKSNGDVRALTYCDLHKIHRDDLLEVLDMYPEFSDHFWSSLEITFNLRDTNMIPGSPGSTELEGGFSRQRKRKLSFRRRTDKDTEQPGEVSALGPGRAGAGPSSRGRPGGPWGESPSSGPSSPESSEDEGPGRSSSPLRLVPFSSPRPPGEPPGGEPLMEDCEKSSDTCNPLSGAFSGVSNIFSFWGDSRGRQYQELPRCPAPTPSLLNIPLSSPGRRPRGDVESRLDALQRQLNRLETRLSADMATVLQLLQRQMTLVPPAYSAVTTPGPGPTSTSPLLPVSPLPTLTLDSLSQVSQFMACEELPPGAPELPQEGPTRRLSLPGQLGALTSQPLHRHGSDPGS
row,SMILES,"hERG current change (%, negative = inhibition) at 10uM"
1,CCOc1ccccc1Nc1nc(N)nc(CN(C)C2CCCCC2)n1,-76.1%
2,Oc1ccc(/C=N/Nc2ccccc2)cc1,0.596%
3,COc1ccc(CNC(=O)CSc2n[nH]c(N)n2)cc1,20.1%
4,COc1ccc(CCNC(=O)COC(=O)C2COc3ccccc3O2)cc1 (stereo not shown),-0.23%
5,CCOC(=O)c1c(C)[nH]c(C(=O)Nc2cc(OCC)c(N3CCOCC3)cc2OCC)c1C,9.42%
6,CC1CCN(C2=NC(=O)/C(=C/c3cccc(O)c3)S2)CC1,-18.5%
7,CCOC(=O)NC(=O)COC(=O)CCCSc1nc2ccccc2s1,-12.9%
8,CN(CC(=O)Nc1ccc(Cl)cc1)C(=O)CCc1c[nH]c2ccccc12,-43%
9,CCN1C(=O)[C@H]2[C@@H](c3ccc(-c4ccc(OC)cc4)cc3)N[C@@](C)(C(=O)OC)[C@H]2C1=O.O=C(O)C(F)(F)F,7.02%
10,Cc1cc(C)c(OCC(=O)OCC(=O)NCCC2=CCCCC2)c(C)c1,12.2%
11,CN(C)CCCNC(=O)c1cc(S(=O)(=O)N2CCOCC2)ccc1F,-5.17%
12,CCN1CCN(C2=C(NS(=O)(=O)c3ccc(C)cc3)C(=O)c3ccccc3C2=O)CC1,-57.1%
13,CNC(=O)NC(=O)CSc1nnc(-c2ccc(F)cc2)n1CC1CCCO1 (stereo not shown),6.46%
14,c1ccc(CNc2nc(-c3cccnc3)nc3ccccc23)cc1,-23.4%
15,Cc1cc(OCC(=O)OCC(=O)c2c(N)n(C)c(=O)n(C)c2=O)ccc1Cl,5.74%
16,COc1ccc(/C=N/NC(=O)c2cc(OC)c(OC)c(OC)c2)cc1CN1CCc2cc(OC)c(OC)cc2C1C (stereo not shown),-73.4%
17,COc1ccc(-c2noc(Cc3cccs3)n2)cc1,-3.62%
18,C/C(=N\O)C(=O)NCCCn1ccnc1,17.2%
19,CCOC(=O)CNC(=O)c1cc2c(=O)[nH]c3ccc(C)cc3c2s1,9.18%
20,CN(C)/C=N/C(=S)Nc1cc(Cl)cc(Cl)c1,27.2%
21,Cc1cccc(C)c1NC(=O)CS(=O)CC(=O)N1CCN(c2ccccc2)CC1 (stereo not shown),15.8%
22,Cc1ccccc1CS(=O)(=O)Cc1ccc(C(=O)N2CCC3(CC2)OCCO3)o1,8.72%
23,CN(CC(=O)Nc1cc([N+](=O)[O-])ccc1Cl)Cc1ccc(Br)cc1,-17%
24,CCCCCCCCCCCCC/C=C/[C@@H](O)[C@@H](N)CO,14.2%
25,O/N=C\c1ccc(-c2ccccc2)o1,-4.28%
26,O=C(C1CCC(Cn2c(=S)[nH]c3ccccc3c2=O)CC1)N1CCN(c2ccccc2)CC1 (stereo not shown),11.7%
27,COc1ccc(CCNC(=O)CCCCn2c(=O)[nH]c3ccccc3c2=O)cc1OC,12.7%
28,CCOc1ccc(/C(O)=C2/C(=O)C(=O)N(CCOCCO)C2c2ccccn2)cc1 (stereo not shown),-4.07%

row,SMILES,"hERG current change (%, negative = inhibition) at 10uM"
1,Cc1nn2c(-c3ccc(Cl)cc3)nnc2s1,-29.6%
2,C=C1CCN([C@@H](C)C(=O)OCc2ccc(C)cc2)S(=O)(=O)c2ccccc21,-15.5%
3,Clc1ccc(-n2cccc2)cn1,5.35%
4,CCO[C@H]1OC(C(=O)N2CCN(Cc3ccc4c(c3)OCO4)CC2)=C[C@@H](c2ccc(C(F)(F)F)cc2)[C@@H]1CCCO,-24.7%
5,O=C(Cc1cccs1)Nc1nc2c(s1)CCCC2,-6.72%
6,Cc1ccc(C)c(NC(=O)c2ccc(N(C)S(C)(=O)=O)cc2)c1,-5.18%
7,Cc1cc(C)cc(NC(=S)N2CCN(c3ccccn3)CC2)c1,-1.07%
8,Cc1nc(NC(=O)CSc2nc3cccnc3n2C2CCCCC2)sc1C,11.6%
9,O=C1CC(c2ccccc2)CC(O)=C1C=NCc1ccco1 (stereo not shown),-15.3%
10,Cc1ccc(S(=O)(=O)N(C)C)cc1NC(=O)CCc1ccccc1,-26.3%
11,C=CCn1c(=O)c2c(nc(-n3nc(C)cc3C)n2C)n(C)c1=O,22%
12,Cn1c(=O)[nH]c(=O)c2c1nc(NCCCO)n2CCOc1ccccc1,-38%
13,O=C(Cn1ccc(C(F)(F)F)n1)N/N=C/c1ccc2c(c1)OCO2,-4.87%
14,Cc1ccc(S(=O)(=O)Nc2ccccc2C(=O)N2CCCCC2)cc1,-12.5%
15,CCC1(C)Cc2ccccc2-c2c1c(=O)n(Cc1ccccc1)c1nnnn21 (stereo not shown),-3.55%
16,O=C(Cn1ncc2c(=O)oc3ccccc3c21)NCCN1CCN(c2ccccc2F)CC1,-28.4%
17,CCCC(C)c1nnc(NC(=O)CN2C(=O)c3ccccc3C2=O)s1 (stereo not shown),7.6%
18,CCOC(=O)c1c(NC(=O)COC(=O)Cc2ccccc2[N+](=O)[O-])sc(C(=O)N(C)C)c1C,-68.9%
19,O=C(O)c1nn2c(C(F)(F)F)cc(-c3cccs3)nc2c1Cl,1.4%
20,CCN(CC)c1ccc(C2C(C(=O)OCCOC)=C(C)NC3=C2C(=O)CCC3)cc1 (stereo not shown),-5.24%
21,O=C(/C=C/c1cccs1)c1cc(Cl)ccc1OC(=O)N1CCOCC1,-28.1%
22,CCC(=O)OCC(=O)c1c(N)n(Cc2ccccc2)c(=O)n(C)c1=O,0.825%
23,CC(C)(C)C(=O)Nc1ccc(NC(=O)c2ccco2)nc1,16.5%
24,O=C(NC(=S)N1CCN(c2ccc(C(F)(F)F)cc2[N+](=O)[O-])CC1)c1cccs1,-23.6%
25,O=C(CNC(=O)c1ccc(F)cc1)N/N=C/c1cc(Br)ccc1OC(=O)/C=C/c1ccco1,5.01%
26,COc1ccc([C@H]2CC(=O)C=C(c3cccc(NC(C)=O)c3)C2)cc1,-17.1%
27,CCS(=O)(=O)Nc1ccc(C2=NN(C(=O)c3ccco3)C(c3ccc(C)cc3)C2)cc1 (stereo not shown),-21%
